In PubChem BioAssay AID493208 (National Center for Advancing Translational Sciences (NCATS), 2011):
Screen size: about 44,000 compounds; about 340 (0.77%) were called active. Inconclusive results (about 5%) are left out. Calls follow the shape of the dose curve; as a rule, active = well fitted inhibition curve with a large enough effect; inconclusive = small, poorly fitted or top-dose-only effect; inactive = flat fitted curve, though single readings scatter. The list shows a part of the results.

Assay: Acumen qHTS Assay for Inhibitors of the mTORC1 Signaling Pathway in MEF (Tsc2-/-, p53-/-) Cells: Sytravon;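 also: plate controls were DMSO for no effect and rapamycin for full effect; nearly all actives have a fitted effect of over 50% in size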
Details: phospho-rpS6 immunofluorescence/PI, 24 h; series mostly up to 38.3 µM; activity change, negative = inhibition: at the top concentration
Outline: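 Tsc2-/-, p53-/- MEFs (empty-vector stable line) in DMEM + 10% FBS were treated with compounds 24 h at 37 degree Celsius, fixed, and immunostained for phospho-rpS6 (Alexa-488) with propidium iodide counterstain. Laser-scanning cytometry gave % positive cells, normalized against 7.5 nM rapamycin and DMSO.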

Activity change, negative = inhibition, inactive:
CCc1nn(CCCC(=O)NCc2cc(Br)ccc2OC)c(=O)c2cc3occc3n12 0.576%
COc1cccc(C(=O)Nc2cccc(C(=O)OCc3cc(=O)n4c5c(sc4n3)CCCC5)c2)c1 0%
COc1ccc2cc(CNc3ccc(C)cc3)c(=O)n(CC(=O)Nc3cccc(C(F)(F)F)c3)c2c1 -22%
CCOC(=O)CSc1nc2c(sc3cccc(F)c32)c(=O)n1Cc1ccc(OC)cc1 2.22%
O=c1c2cccnc2n(Cc2cccc(F)c2)c(=O)n1Cc1ccccc1Cl -3.46%
Cc1ccc(-c2nnc(Nc3ccc(O)cc3)c3ccccc23)cc1S(=O)(=O)N1CCCCC1 16.5%
COc1ccccc1-n1c(=O)c2c3c(sc2n(Cc2ccccc2F)c1=O)CN(C(C)=O)CC3 -3.26%
CC(C)(C)C(=O)Nc1ccc2nc(SCC(=O)N3CCc4ccccc43)sc2c1 -5.22%
Cc1ccc(S(=O)(=O)c2cn(CC(=O)Nc3ccc4c(c3)OCO4)c3ccccc3c2=O)cc1C -16.1%
O=C(NCCS(=O)(=O)N1CCN(c2ccc(F)cc2)CC1)C1CC(=O)N(c2ccccc2)C1 (stereo not given) -0.178%
CC(C)c1cc(-c2nc(-c3ccc(Br)cc3)no2)n[nH]1 9.7%
CCCN1CCN(CCNC(=O)Nc2ccccc2OCC)CC1 2.04%
CCCN(Cc1cccs1)C(=O)Nc1ccc(Br)cc1F -5.37%
Cc1cc2c(n1-c1ccc(C(=O)NCCc3ccccc3)cc1)CCC(C)C2 (stereo not given) -0.497%
COc1ccc2[nH]c(=O)c(CN(C(=O)c3cccc(Cl)c3)c3cccc(C)c3)cc2c1 -5.09%
CCN1CCN(c2ncc3c(n2)CCN(Cc2ccc(OC)c(OC)c2)C3)CC1 6.64%
COc1cccc(CNC(=O)CCCCCn2c(=O)[nH]c3cc(OC)c(OC)cc3c2=O)c1 2.32%
CCN1C(=O)c2ccccc2S(=O)c2ccc(C(=O)N3CCN(c4ccccc4OC)CC3)cc21 (stereo not given) -11.7%
CN(Cc1ccccc1)C(=O)c1cc(-c2cccc(Cl)c2)on1 -24.5%
COc1cc(C(CC(=O)Nc2cc(C)ccn2)N2Cc3ccccc3C2=O)cc(OC)c1OC (stereo not given) -6.15%
CCOC(=O)c1c(C)[nH]c(C)c1S(=O)(=O)NCC(=O)NCc1ccccc1Cl -1%
Cc1cc2c(n1-c1ccc(C(=O)NCc3ccc(OC(C)C)cc3)cc1)CCCC2 -4.75%
COc1ccccc1NC(=O)CSc1oc(-c2ccccc2)nc1S(=O)(=O)c1ccccc1 -3.16%
COc1ccc2c(c1)c1c(c(=O)n(-c3cccc(C)c3)c(=O)n1CC(=O)NCC1CCCO1)n2C (stereo not given) -4.79%
COc1ccccc1CNC(=O)CCCn1c(=O)c2ccccc2n(Cc2ccccc2C#N)c1=O -0.146%
Cc1cccc(Cc2c(C)nc3nc(SCc4ccccc4F)nn3c2C)c1 0.892%
CCOc1ccccc1C(=O)Nc1ccc(S(=O)(=O)Nc2ncccn2)cc1 5.58%
COc1ccc(Cl)cc1NC(=O)NCCc1c(C)nn(C)c1C 9.68%
COc1ccc(OC)c(NC(=O)Cn2c(=O)n(Cc3nc(C)no3)c(=O)c3ccccc32)c1 -6.6%
CCc1cccc(C)c1NC(=O)c1ccc2c(c1)CCN2S(=O)(=O)CC -0.761%
CC(=O)Nc1ccc(NC(=O)c2cc(-c3cccs3)on2)cc1 -1.45%
O=C(CSC1=Nc2ccccc2N=C(c2ccc(F)cc2)C1)Nc1ccc(Cl)cc1 6.31%
Cc1ccc(Sc2c(C)nn(C(=O)c3ccc(Br)cc3)c2C)cc1 4.3%
COc1ccc(Nc2ncnc3onc(C)c23)c(OC)c1 4.16%
COc1ccccc1CNS(=O)(=O)c1ccc2c(c1)CC(C)N2C(=O)C1CCC1 (stereo not given) -1.89%
COc1ccc(N2CCN(C(=O)C(C)n3c(=O)cc(C(F)(F)F)c4c(C)nn(C)c43)CC2)cc1 (stereo not given) 0.179%
Cc1ccc(NC(=O)C2CCCN2S(=O)(=O)c2ccc3c(c2)C(C)(C)C(=O)N3C)cc1 (stereo not given) 1.52%
CCOc1ccc(NC(=O)c2cc(C)nc3c2c(C)nn3-c2cccc(F)c2)cc1 6.56%
Cn1cnc(S(=O)(=O)N2CCCC(C(=O)NCc3ccccc3)C2)c1 (stereo not given) 0%
Cc1cccc(N2CCN(C(=O)Cn3ncc4c([nH]c5ccccc54)c3=O)CC2C)c1 (stereo not given) 3.32%
COc1ccc(-c2cc(C)no2)cc1S(=O)(=O)NC1CCC(C)CC1 (stereo not given) 0%
CC1(C(=O)NC2CCCCC2)Cc2ccccc2C(=O)N1Cc1ccc(F)cc1 (stereo not given) -1.34%
Cc1ccc(S(=O)(=O)c2nc(-c3ccco3)oc2SCc2ccc(F)cc2)cc1 -20.3%
O=C(CSc1nc2ccccc2nc1Cc1ccccc1)Nc1ccccc1C(F)(F)F 4.97%
COc1ccc(S(=O)(=O)NCCc2sc3nc(-c4ccc(C)cc4)nn3c2C)cc1F -21.8%
CCOc1ccc(-n2ccnc2SCC(=O)Nc2ccc3c(c2)OCO3)cc1 -7.53%
CCOc1ccc(CNC(=O)c2cnc3sc(N(CC)CC)nn3c2=O)cc1 -13.6%
COc1cccc(NC(=O)c2c(N3CCCC3=O)c3cc(C)ccc3n2C)c1 0%
O=C(Nc1ccc(C(=O)OCc2cc(=O)n3nc(C4CC4)sc3n2)cc1)c1cccc(Cl)c1 0.29%
CCOc1ccc(CCNC(=O)c2cccc(-n3c(C)nc4cccnc43)c2C)cc1 1.05%
CCOC(=O)CCCN1C(=O)CCn2nc(-c3cn(C)c4ccccc34)cc21 -5.31%
CCCCN(Cc1ccccc1)S(=O)(=O)c1cc(Br)cc2c1N(C(C)=O)CC2 -14.4%
COc1ccc(C(=O)Nc2c(C(=O)c3ccc(F)cc3)oc3ccccc23)cc1 0.579%
CCc1cccc(C)c1NC(=O)C1CCN(S(=O)(=O)c2cccc3nonc23)CC1 -4.52%
O=C1CC(c2ccc(Cl)cc2)c2cc3c(cc2N1)OCCO3 (stereo not given) -2.67%
COc1ccc(-c2nc3c(c(SCC(=O)Nc4ccccc4OC)n2)Cc2cccc(C)c2O3)cc1 -20.6%
CCCCCn1c(=O)[nH]c2cc(C(=O)N3CCN(c4cccc(OC)c4)CC3)ccc2c1=O -35.1%
CCCSc1ncc(Cl)c(C(=O)Nc2scc(-c3ccc(C)cc3)c2C(=O)OCC)n1 -4.97%
CCOc1ccc(CNC(=O)c2cccn2-c2nnc(N3CCCCC3)s2)cc1OC 0%
CCOCCCNC(=O)c1cc(=O)[nH]c2ccc(S(=O)(=O)N3CCCC3)cc12 1.74%
CCCCC(=O)Nc1c(C(=O)N2CCN(c3ccccc3)CC2)oc2ccccc12 1.58%
CCC(C)NC(=O)Cc1ccc(NC(=O)N2CCCCc3ccccc32)cc1 (stereo not given) 10.4%
CC(C)Oc1ccc(CNC(=O)C2CCCCN2S(=O)(=O)c2ccc(F)cc2)cc1 (stereo not given) -7.77%
Cc1cc(C)cc(OCc2cc(=O)n3c4c(sc3n2)CCCC4)c1 0.353%
Cc1ccc(-n2c(=O)c3oc4ccccc4c3n(CC(=O)Nc3ccc(F)c(Cl)c3)c2=O)cc1C 1.07%
N#Cc1ccccc1NC(=O)C(=O)NCC(c1ccc2c(c1)OCO2)N1CCOCC1 (stereo not given) -2.36%
O=C(CS(=O)(=O)c1cccc2nsnc12)Nc1ccc(F)cc1F 5.68%
CC(C)CCNC(=O)c1c2c(nc3ccccc13)C(=O)N(C1CCCCC1)C2 1.15%
CCCCN(C)C(=O)c1ccc2c(c1)N(Cc1ccc(F)cc1)C(=O)c1ccccc1S2(=O)=O -0.81%
O=C(Nc1ccccc1F)C1CCN(S(=O)(=O)c2ccc3c(c2)CCCN3C(=O)C2CCC2)CC1 1.07%
Cc1ccc(-c2nc(CS(=O)CC(=O)N3CCN(c4ccc(F)cc4)CC3)c(C)o2)cc1 (stereo not given) 0.974%
O=c1c2sc3ccccc3c2n(Cc2cccc(F)c2)c(=O)n1Cc1ccccc1 2.26%
CCOC(=O)Cn1c(=O)n(CC2CCCO2)c2nc(-c3ccccc3OC)nc(C(N)=O)c21 (stereo not given) 0.154%
O=C(NC1CC(=O)N(c2ccc(F)cc2)C1)c1ccc(S(=O)(=O)N2CCCCC2)cc1 (stereo not given) 0.423%
Cc1ccc2c(c1Br)C(O)(CC(=O)c1ccc(F)cc1)C(=O)N2 (stereo not given) 2.72%
O=C(NCc1cccs1)c1ccc2c(=O)n3nc(Nc4ccccc4)sc3nc2c1 -6.15%
Cc1cccc2sc(N(Cc3cccnc3)C(=O)CCc3ccccc3)nc12 -32.3%
Cc1c(Cl)cccc1NC(=O)CC1Oc2ccccc2NC1=O (stereo not given) -1.06%
CCOc1ccccc1C(=O)N(Cc1ccco1)Cc1ccco1 1.39%
COc1ccccc1CNC(=O)C1CCCN(S(=O)(=O)c2ccc3c(c2)oc(=O)n3C)C1 (stereo not given) -1.99%
O=C(c1ccc2c(c1)N(Cc1ccccc1F)C(=O)c1ccccc1S2(=O)=O)N1CCC(Cc2ccccc2)CC1 -6.43%
COc1ccc(-c2cc(C(=O)Nc3c(C(=O)c4ccc(C)cc4)oc4ccccc34)no2)cc1 -0.335%
O=C(Cn1c(=O)n(Cc2nc(-c3ccccc3)no2)c(=O)c2ccccc21)Nc1cccc(C(F)(F)F)c1 -0.901%
Cn1cc(-c2cc3n(n2)CCC(=O)N3CCCC(=O)NCc2ccc(Cl)cc2)c2ccccc21 -4.71%
O=C(CCCn1c(=O)c2cccn2c2ccccc21)Nc1cc(C(F)(F)F)ccc1Cl 1.83%
CCC(CC)C(=O)OCc1cc(=O)n2nc(C3CC3)sc2n1 -10%
CC1=C(c2ccc(Cl)cc2)S(=O)(=O)NC1=NCCCN1CCN(c2cc(C)ccc2C)CC1 -1.06%
CC1C(=O)Nc2ccc(S(=O)(=O)N3CCCCC3)cc2NC1=O (stereo not given) -13.5%
CCOC(=O)c1cc(-c2ccc(OC)cc2)n(CCC(=O)Nc2ccccc2OC)c1C 5.37%
O=C(CSc1nccn1Cc1ccccc1)NCc1ccco1 -0.224%
COc1ccc(Cn2c(CCC(=O)Nc3cc(OC)c(OC)c(OC)c3)nc3cccnc32)cc1 -1.81%
CCOc1ccc(NCc2cccn2-c2nnc(N3CCC(C(=O)NCC(C)c4ccccc4)CC3)s2)cc1 (stereo not given) -1.81%
CCOc1ccccc1NC(=O)CN1C(=O)COc2ccc(S(=O)(=O)N3CCOCC3)cc21 1.47%
CCN(c1ccccc1)S(=O)(=O)c1ccc(NC(=O)c2nc(SC)ncc2Cl)cc1 -2.82%
CCN(CC)c1ccc(NC(=O)C2CCN(c3nnc(-n4cccc4)s3)CC2)c(C)c1 -15.5%
